4 molecules from paper PMC3891622, “The Sphingolipid Receptor S1PR2 Is a Receptor for Nogo-A Repressing Synaptic Plasticity” (PLoS Biology, 2014) can be followed below.

Sequences of proteins named here, by UniProt entry; tags and fusion partners are left off.
UniProt O95136: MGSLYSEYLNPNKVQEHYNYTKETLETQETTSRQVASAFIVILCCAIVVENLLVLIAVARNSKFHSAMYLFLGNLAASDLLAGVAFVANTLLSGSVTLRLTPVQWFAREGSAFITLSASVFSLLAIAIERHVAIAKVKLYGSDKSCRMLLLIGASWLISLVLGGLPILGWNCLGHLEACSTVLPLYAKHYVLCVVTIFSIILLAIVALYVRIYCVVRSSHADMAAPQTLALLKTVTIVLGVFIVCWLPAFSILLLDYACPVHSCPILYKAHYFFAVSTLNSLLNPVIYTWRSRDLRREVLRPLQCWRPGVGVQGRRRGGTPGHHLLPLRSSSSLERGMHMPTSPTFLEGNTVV
UniProt P52592: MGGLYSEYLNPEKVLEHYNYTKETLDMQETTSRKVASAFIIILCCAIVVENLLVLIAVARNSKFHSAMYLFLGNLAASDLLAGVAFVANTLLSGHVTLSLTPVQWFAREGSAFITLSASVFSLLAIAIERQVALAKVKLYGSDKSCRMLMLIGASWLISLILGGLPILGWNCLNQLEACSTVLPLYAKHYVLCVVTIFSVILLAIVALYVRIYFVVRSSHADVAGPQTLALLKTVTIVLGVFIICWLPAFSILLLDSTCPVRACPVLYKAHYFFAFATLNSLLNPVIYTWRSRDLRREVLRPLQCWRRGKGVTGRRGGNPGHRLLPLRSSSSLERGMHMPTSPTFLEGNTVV

Where two headings read alike, the source gives them in different places. Results are given in words; binding and its absence hold for the method and conditions named. In cells and extracts the contact can be indirect. Some entries that bind do so weakly or less than the wild type. For part of these data: Tags and fused reporters may be left off the sequences shown.

Test [1] addresses T1, His-tagged Nogo-A-Δ20 (rat aa544-725) (rat) (UniProt Q9JK11).
T1 sequence: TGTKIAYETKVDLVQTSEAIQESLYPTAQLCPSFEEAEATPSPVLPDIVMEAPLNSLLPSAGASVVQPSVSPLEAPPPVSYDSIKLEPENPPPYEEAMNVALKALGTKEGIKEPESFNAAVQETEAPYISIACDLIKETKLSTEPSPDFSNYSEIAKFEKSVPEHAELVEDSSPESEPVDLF
Put plainly: pull-down; His-tagged Nogo-A-Δ20 co-incubated with S1PR2 membrane preparations and precipitated (His Protein Interaction Pull-Down kit, Pierce); blot for S1PR2; heat-inactivated Nogo-A-Δ20 as control; only the target purified.

Test [2] deals with T1, His-tagged Nogo-A-Δ20 (rat aa544-725) (rat). The test is described as above. The source holds these as a separate data set.
Test [3] has as its target T2, Endogenous Nogo-A (~200 kDa) of mouse brain (mouse (endogenous in mouse brain)) (UniProt Q99P72).
T2 sequence: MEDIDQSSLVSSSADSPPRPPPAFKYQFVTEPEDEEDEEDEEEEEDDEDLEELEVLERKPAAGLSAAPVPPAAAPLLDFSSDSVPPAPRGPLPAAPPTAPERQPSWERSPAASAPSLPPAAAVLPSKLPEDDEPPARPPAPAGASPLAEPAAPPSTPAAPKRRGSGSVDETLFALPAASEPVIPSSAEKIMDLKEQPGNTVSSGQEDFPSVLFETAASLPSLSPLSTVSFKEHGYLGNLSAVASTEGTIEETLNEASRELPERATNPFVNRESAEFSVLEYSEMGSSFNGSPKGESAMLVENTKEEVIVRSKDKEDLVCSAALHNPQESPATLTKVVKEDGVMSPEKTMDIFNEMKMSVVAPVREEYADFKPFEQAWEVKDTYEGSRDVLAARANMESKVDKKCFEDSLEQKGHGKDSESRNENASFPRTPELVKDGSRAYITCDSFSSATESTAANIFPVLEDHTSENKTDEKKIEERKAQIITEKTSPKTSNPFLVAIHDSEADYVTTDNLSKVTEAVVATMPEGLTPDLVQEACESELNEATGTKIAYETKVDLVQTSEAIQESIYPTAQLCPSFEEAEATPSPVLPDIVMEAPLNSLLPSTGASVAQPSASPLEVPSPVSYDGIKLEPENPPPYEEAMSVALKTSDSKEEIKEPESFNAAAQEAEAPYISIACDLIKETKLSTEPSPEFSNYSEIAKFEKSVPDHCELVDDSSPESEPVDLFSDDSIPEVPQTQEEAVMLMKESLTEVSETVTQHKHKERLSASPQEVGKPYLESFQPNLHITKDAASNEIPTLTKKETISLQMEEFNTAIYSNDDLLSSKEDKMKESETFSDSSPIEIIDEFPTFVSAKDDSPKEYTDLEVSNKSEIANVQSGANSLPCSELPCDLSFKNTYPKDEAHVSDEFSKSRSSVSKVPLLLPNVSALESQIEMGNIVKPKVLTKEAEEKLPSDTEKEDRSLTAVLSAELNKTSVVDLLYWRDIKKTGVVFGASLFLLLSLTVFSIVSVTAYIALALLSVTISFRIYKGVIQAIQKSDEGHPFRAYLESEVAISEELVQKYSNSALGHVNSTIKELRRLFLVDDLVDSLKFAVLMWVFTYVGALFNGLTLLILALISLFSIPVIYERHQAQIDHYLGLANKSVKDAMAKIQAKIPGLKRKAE
Put plainly: co-IP; whole brain of P10 WT, Nogo-A-/- and S1PR2-/- mice lysed in RIPA buffer; Pierce Co-IP Kit; IP of Nogo-A or of S1PR2; controls: IgG, resin only, quenched antibody resin.

Test [4] deals with Recombinant full length S1PR2 in membrane preparations (UniProt O95136). Put plainly: co-IP; His-tagged Nogo-A-Δ20 co-incubated with S1PR2-overexpressing membranes; S1PR2 immunoprecipitated, blot for His-tagged Δ20; heat-inactivated Δ20 as control; only the binder purified.
Test [5] shares this target. Described as above. The source holds these as a separate data set.
For test [6], the target named is Endogenous S1PR2 (~40 kDa) of mouse brain (mouse (endogenous in mouse brain)) (UniProt P52592). Put plainly: co-IP; whole brain of P10 WT, Nogo-A-/- and S1PR2-/- mice lysed in RIPA buffer; Pierce Co-IP Kit; IP of Nogo-A or of S1PR2; controls: IgG, resin only, quenched antibody resin.

“Recombinant full length S1PR2 in membrane preparations (from UniProt O95136 1-353) (receptor)”: the binding entry was “no binding (condition: heat-inactivated Δ20)” in test [1] and “binds” in test [2].
Regarding “Endogenous S1PR2 (~40 kDa) of mouse brain (from UniProt P52592 1-352) (receptor)”, in test [3], the binding result was “binds”.

B1: His-tagged Nogo-A-Δ20 (rat aa544-725) (domain or fragment, UniProt Q9JK11-1 544-725)
chain: T1 sequence
For B1, the figures for the binding entry in test [4] and in test [5] were “no binding (condition: heat-inactivated Δ20)” and “binds”, respectively.

B2: Endogenous Nogo-A (~200 kDa) of mouse brain (protein, UniProt Q99P72-2 1-1162)
chain: T2 sequence
With B2, in test [6], the binding entry was “binds”.
